Read counts are not given, so values of variants with three or more changes are uncertain.
B1: CPEB3 Ribozyme (parent)
chain: UAACAGGGGGCCACAGCAGAAGCGUUCACGUCGCAGCCCCUGUCAGAUUCUGGUGAAUCUGCGAAUUCUGCUGUAUAUCUC

Variants of: B1
Experiment: self-cleavage, relative activity (ratio to wild type); higher = more cleavage; in vitro, sequencing
Procedure, shortened: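 For each CPEB3 ribozyme variant, relative activity is its cleaved/total read fraction divided by the unmutated ribozyme's. Barcoded error-prone PCR libraries were transcribed by T7 RNA polymerase (5 hours, 37°C) and held in DNase I for 15 min before an EDTA stop, with cleavage occurring throughout. Template-switching reverse transcription and Illumina sequencing were used to read the RNAs. A 5-read minimum applied, and results are the mean of three batches.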

Variant	self-cleavage
A5U C12U U41C G42C U67C A75U	0.05
A5U A65G U69C U72A	0.16
A5U A21G U43C U72A U76A	0.45
A5U A21G U25A A45G G73A U78C	0.14
A5U A56U U80C	0.73
A5U C11U U26C	0.48
A5U A20G A35G	1.23
A5U A18U U76C	0.55
A5U A45G U80C	1.01
A5U A21G U49A C59U	0.12
A5U C14G G24A C37U	0.27
A5U A20G U51C	0.9
A5U A20G A35U U80A	0.64
A5U A21G U41A U49A	0.09
A5U A21G U41A U80C	0.5
A5U C11A A20G U31A A45G A56U	0.04
A5U C11G A20G U43A A45U	0.28
A5U A35U U41C A56G G63A	0.4
A5U A20G A21G C34U C44U A47G	0.35
A5U A21U U78C	0.32
A5U A18U A57G A64U U80C	0.15
A5U C11A A18U A77U	0.38
A5U C14U U41A A64G	0.11
A5U C14U A35G U66C A77U	1.29

Variant	self-cleavage
A5U A18U U31A U41A	0.26
A5U C12G A28U U80C	0.96
A5U A21G C40U	0.12
A5U C14A U43C A56U	0.26
A5U A20U U31C G33A A57U	0.25
A5U A20G U54G U58A	0.13
A5U C12U C23G U43C U49C	0.15
A5U A57G U69C	0.6
A5U A21U A56G A64G	0.34
A5U A18U U67A	0.35
A5U A28G U43A A57U A64G	0.41
A5U A20U U31C	0.4
A5U A35G C37U	1.23
A5U A45G G52C A64U	0.22
A5U A18G U41A U54C U58A	0.12
A5U C12U A57G	1.15
A5U A21U A57G U58C U72A	0.14
A5U A20U U31A C37U C59U	0.09
A5U C11G A28C A56G U72C U78C	0.11
A5U C11G A65G U72C	0.09
A5U A65G U66C	0.5
A5U A21U A28U U51G C62G	0.24
A5U A18U G22A A56G	0.38
A5U A28G U43G A64U	0.14

Variant	self-cleavage
A5U A56G U80A	1.02
A5U A21G U25C A57G	0.36
A5U A20G C29U U31A U69A U76C A77G	0.2
A5U A35U U54G	0.5
A5U A20G U60C U67C U76A	0.57
A5U A21G U41A G52U	0.13
A5U A20G U26A U31C U66C	0.3
A5U A20G U69C	0.58
A5U A20G U72C U76C U80C	1.15
A5U C11G G19A A20U A28C C81U	0.06
A5U C12U A18G C37G U43A A47G U51C	0.25
A5U A35U U72A U80C	0.94
A5U A35U A57G	0.65
A5U A21U U48A U54C U66C	0.06
A5U C12U A18G U26C A35U U41A U76A	0.24
A5U A57G U80C	1.07
A5U A20G A45U U76C	0.37
A5U C12U A18G U26C C59A A75U U76A	0.12
A5U C17U A35U	0.76
A5U A20G U26C G30A U43C U80A	0.52
A5U A28G U41C U51G U58C U69A	0.19
A5U A20G U67C	0.78
A5U A35G U69C	1.03
A5U A35U U41C	0.4

Variant	self-cleavage
A5U A18G U31C U41A C44U A56U U58A	0.08
A5U A35U U72C	0.76
A5U A45G A47G U72A U76C	0.44
A5U A47G A64U U66C U80A	0.3
A5U A18U U78C	0.48
A5U A28G U49C U76C	0.24
A5U A28G C32A A64G U66C	0.3
A5U A18U U25C G53C U72A	0.24
A5U C23A A45C	0.28
A5U C11U C29U U48C U51C A56U U66A	0.04
A5U A64U U67C U72A	0.41
A5U A18G U26A U41A U43A A47G	0.11
A5U C17G U67C	0.24
A5U A57U C59A	0.29
A5U A21U U25C U58C U60A	0.16
A5U C11U U41A U60C	0.15
A5U A21G U25C A77G	0.17
A5U A21U U51C U60A	0.27
A5U A21G C29U	0.47
A5U A28G C50A A65G U72A	0.19
A5U C14G A15G	0.8
A5U A28U C32U U49A C68A U74C A77G	0.08
A5U A28G U76A U78C	0.61
A5U A18U A35U A56U	0.18

Variant	self-cleavage
A5U C14A A18U A20G U25C	0.08
A5U A21G A45C	0.62
A5U C17G U51G	0.34
A5U A18U C62A A64G	0.15
A5U C17G U66C	0.27
A5U C11U A20G U26A A35G A45G	0.9
A5U A28G G33A G53A A57G	0.1
A5U C17U C39U C44A U72A	0.07
A5U A35G A56U U60C	0.53
A5U A65G U72A	0.75
A5U A21G U26A A35G A45G U78C U80C	0.97
A5U C12U U49A	0.78
A5U A28G C39A U41C	0.59
A5U A45U G53A U72G	0.69
A5U A21G U43A U74C	1.14
A5U A35U C40U	0.3
A5U A47G U49A A64U	0.2
A5U C23A U60C A65G	0.13
A5U A64G U80C	1.06
A5U A56G U60C	0.4
A5U A21G A35U U66A	0.09
A5U A21G A35G U69A U76C	0.53
A5U A28G A57G	0.55
A5U A35G C59U	1.23

Variant	self-cleavage
A5U A64G U69G	0.52
A5U A35G U54C U76C U80C	1.29
A5U A20U U41C U43C U54A U74C	0.55
A5U C14A G36U U54A U69A	0.18
A5U A21U C34U U48C U51C	0.07
A5U A18U U54C	0.24
A5U A20G U31C	0.65
A5U C14U A28G	0.6
A5U C11U A20U G33A U54C A64U U72A	0.15
A5U A56U A65G	0.36
A5U A21G C40U U48C U54C U69C C71U	0.07
A5U C14U U25C A64U C68A	0.32
A5U A18U G33C U72C	0.11
A5U C17G C40A U49C C50U U54C	0.08
A5U A18U A47G C62U	0.17
A5U C17U C23A U31C A64U	0.07
A5U A20G A47G U54C A56U	0.21
A5U A56U U67C	0.49
A5U A18U U67C A77C U78C	0.18
A5U A45G A56G A57G C81U	0.39
A5U A35U A65G U67A	0.15
A5U C17U U41A U80A	0.1
A5U A18U A20G A21G U41A C62U	0.08
A5U C17U A45G U58C U60A	0.3

Variant	self-cleavage
A5U C17G A47G	0.08
A5U A18G U43C U51A	0.68
A5U C11A A15G U51A	0.27
A5U A45U A47G	0.47
A5U A28G A35G A45U	0.81
A5U C14A A18G U25C U43A U48C U60C	0.09
A5U A45G U51A	1
A5U A20G G24C G33A A77U	0.27
A5U A77U U80C	1.11
A5U C12U C39U	1.07
A5U C23U A77U	0.35
A5U C14U G19U G33A G61A G73U	0.09
A5U A18U A21C G52A U69C	0.05
A5U A28G A35U	0.5
A5U C11G U26C C29U U51A A56U	0.04
A5U A21G A56G G63A	0.22
A5U C11G A13U C38A	0.4
A5U C12G A20G U43A A45U U51A U60C	0.12
A5U A20U A77G	0.33
A5U A56U G61A	0.25
A5U A64G U69C U78A	0.55
A5U A21U U31A U67C U74C	0.1
A5U A56G U66C U72C	0.3
